The campaign covered roughly 310,000 compounds. About 2,200 (0.71%) showed an effect of 50% or more. The effect is printed as a negative number. The list shows a part of the results.

In the experiment the target is human ether-à-go-go-related gene (hERG) potassium channel (human, UniProt Q12809). Nature of the experiment: primary screen, population patch clamp on CHO cells stably expressing hERG.
Sequence of human ether-à-go-go-related gene (hERG) potassium channel (Q12809 whole entry, looked up): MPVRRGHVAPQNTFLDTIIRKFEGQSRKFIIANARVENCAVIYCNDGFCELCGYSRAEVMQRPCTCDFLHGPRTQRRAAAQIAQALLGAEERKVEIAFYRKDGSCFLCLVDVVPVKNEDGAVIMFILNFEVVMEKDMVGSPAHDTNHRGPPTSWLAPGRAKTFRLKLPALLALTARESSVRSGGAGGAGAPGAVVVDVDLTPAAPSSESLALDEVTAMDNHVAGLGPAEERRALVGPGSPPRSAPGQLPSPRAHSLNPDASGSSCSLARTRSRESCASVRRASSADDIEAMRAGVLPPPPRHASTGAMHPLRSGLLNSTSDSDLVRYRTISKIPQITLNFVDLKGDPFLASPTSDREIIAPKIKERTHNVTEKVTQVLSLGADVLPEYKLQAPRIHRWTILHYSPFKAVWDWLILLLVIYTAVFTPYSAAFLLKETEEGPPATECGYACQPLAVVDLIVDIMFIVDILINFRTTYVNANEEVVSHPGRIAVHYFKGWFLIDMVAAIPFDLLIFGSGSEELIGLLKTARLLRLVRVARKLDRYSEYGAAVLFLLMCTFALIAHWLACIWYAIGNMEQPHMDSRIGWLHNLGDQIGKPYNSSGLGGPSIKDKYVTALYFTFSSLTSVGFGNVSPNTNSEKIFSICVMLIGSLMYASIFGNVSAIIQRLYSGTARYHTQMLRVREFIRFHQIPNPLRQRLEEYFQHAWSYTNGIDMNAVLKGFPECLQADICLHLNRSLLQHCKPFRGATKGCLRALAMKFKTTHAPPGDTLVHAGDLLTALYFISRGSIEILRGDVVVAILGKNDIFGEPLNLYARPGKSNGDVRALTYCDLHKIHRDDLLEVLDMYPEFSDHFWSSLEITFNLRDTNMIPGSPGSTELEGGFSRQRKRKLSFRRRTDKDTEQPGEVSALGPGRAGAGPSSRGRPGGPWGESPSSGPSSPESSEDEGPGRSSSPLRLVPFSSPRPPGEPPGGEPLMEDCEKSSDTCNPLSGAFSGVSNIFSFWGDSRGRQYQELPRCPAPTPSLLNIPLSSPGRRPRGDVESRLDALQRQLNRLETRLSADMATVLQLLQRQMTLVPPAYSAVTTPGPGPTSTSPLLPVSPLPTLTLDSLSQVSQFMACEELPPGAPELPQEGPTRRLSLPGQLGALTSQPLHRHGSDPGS
With `O=C(c1cc(-c2ccc3c(c2)OCO3)on1)N1CCOCC1`, the “hERG current change (%, negative = inhibition) at 1uM” value stood at 8.23%.
The same measure for `N/C(CCS(=O)(=O)c1ccc(Cl)cc1)=N\OC(=O)c1ccc(Cl)cc1`: 9.88%; for `C=CCn1c(COc2ccccc2F)nnc1SCC(=O)Nc1cc2oc3ccccc3c2cc1OC`: 8.2%.
Under `CC1CCc2[nH]c3ccc(C(=O)NCCCOC(C)C)cc3c2C1` (stereo not drawn) stands 6.32%.
Under `COc1ccc(NC(=O)Nc2c(O)ccc3ccccc23)cc1` stands 9.84%; under `CC(=O)c1cccc(NC(=O)COC(=O)c2cccs2)c1`, 2.15%; under `COc1ccc(/C=N/n2cncn2)cc1CSc1ccccn1`, 4.78%.
Take `COc1ccc2nc(SC)c(C#N)cc2c1`: the “hERG current change (%, negative = inhibition) at 1uM” value was found to be 6.11%.
The same measure for `Cc1ccc(NC(=O)Nc2cccc([N+](=O)[O-])c2)nc1`: 14.5%; for `O=C(Nc1nnc(SCC(=O)N2CCCc3ccccc32)s1)c1ccccc1`: 8.42%.
Under `Cc1cccc(N(CC(=O)NC(C)(C)C)C(=O)CS(=O)CC(=O)Nc2ccc(F)cc2)c1` (stereo not drawn) stands 24.9%.
Under `CCOC(=O)[C@@H]1[C@H]2COc3ccccc3[C@H]2N2C(=O)N(c3ccc(Cl)cc3)C(=O)[C@]12C` stands 4.74%.
On to `CCOc1cc(/C=C(/NC(C)=O)C(=O)O)cc(Cl)c1OCc1cccc(Br)c1`, for which the “hERG current change (%, negative = inhibition) at 1uM” value amounted to 5.06%.
Under `c1ccc(C2(CN3CCNC[C@H]3Cc3cccc4ccccc34)CC2)cc1` stands 3.83%.
On to `CCCn1c2c(c(O)c(C(=O)Nc3nc4ccccc4s3)c1=O)CCCC2`, for which the “hERG current change (%, negative = inhibition) at 1uM” value was 20.9%.
Under `COc1ccc(-c2nc(N)n[nH]2)cc1OC` stands 15.9%; under `CC1(C)OC(=O)C(=CNC(CCC(N)=O)C(=O)O)C(=O)O1` (stereo not drawn), 11.7%.
Under `CN(C)CCOC(=O)c1ccc2c(c1)S(=O)(=O)c1ccccc1C2=O.Cl` stands 7.79%.
As for `Cc1cccc(NC(=O)CSc2nc3[nH]c(=O)cc(O)c3s2)c1`, the “hERG current change (%, negative = inhibition) at 1uM” value turned out to be 4.34%.
Under `COc1cccc(CN2CCNC(=O)C2CC(=O)NCCn2cccn2)c1OC` (stereo not drawn) stands 14.4%; under `COc1ccc(CNC(=O)CS(=O)Cc2nc(-c3ccc(C)cc3)oc2C)cc1` (stereo not drawn), 5.87%.
As for `CC1CC1C(=O)OCC(=O)NC(=O)c1ccccc1` (stereo not drawn), the “hERG current change (%, negative = inhibition) at 1uM” value stood at 9.5%.
Under `CCOC(=O)N1CCC(n2c(SCC(=O)NCc3ccccc3)nc3ccccc3c2=O)CC1` stands 7.38%.
The same measure for `CCCC(=O)NC(C)C(c1cccs1)N1CCN(C)CC1` (stereo not drawn): 4.85%; for `CCC(Cc1c(I)cc(I)c(N)c1I)C(=O)O` (stereo not drawn): 8.87%.
Under `O=C(NCCc1ccccc1Cl)C1CCC(=O)N(C2CCCCCC2)C1` (stereo not drawn) stands 9.25%.
Regarding `CC(C)[C@H]1C(=O)Nc2ccccc2N1C(=O)N[C@@H](Cc1ccccc1)C(=O)N[C@H](C(=O)O)c1ccccc1`, the “hERG current change (%, negative = inhibition) at 1uM” value was found to be 13%.
As for `COc1ccc(NC(=S)N2CCC(NC(=O)c3cccc(F)c3)CC2)cc1`, the “hERG current change (%, negative = inhibition) at 1uM” value was found to be 2.3%.
As to `COc1cc(S(=O)(=O)N2CCCCC2)ccc1NC(=O)Cc1ccccc1`, the “hERG current change (%, negative = inhibition) at 1uM” value came to 12.2%.
Under `COCCn1c(=O)[nH]c2cc(C(=O)N3CCN(c4ccccc4OC)CC3)ccc2c1=O` stands 2.25%; under `COc1ccc(NC(=O)c2cc(-c3ccccc3)on2)cc1`, 13.8%.
The same measure for `COCCNC(=O)c1ccccc1-c1nc(-c2ccccc2Cl)no1`: -3.66%; for `Cc1[nH]nc2c1C(c1ccccc1F)CC(=O)N2` (stereo not drawn): -1.84%.
Under `Cc1ccccc1OCC(=O)OCC(=O)Nc1cc(S(=O)(=O)N2CCCCC2)ccc1Cl` stands 9.54%; under `CCc1cc2c(SCc3ccc(C(=O)OC)o3)ncnc2s1`, 20.7%; under `Cn1c(SCc2nc(-c3ccc(Cl)cc3)no2)nnc1-c1cccs1`, -0.507%.
For the compound `CCOc1cc(C2C3=C(CC(C)(C)CC3=O)N(CCCOC)C3=C2C(=O)CC(C)(C)C3)ccc1OC`, the “hERG current change (%, negative = inhibition) at 1uM” value was found to be 5.09%.
Under `Cc1ccc(OCCSc2cc(C)nc(N)n2)cc1` stands 4.35%; under `Cc1ccc(-n2nc3c(c2NC(=O)c2ccccc2)CS(=O)(=O)C3)cc1C`, -0.502%; under `Cc1ccc(Nc2nc(Cl)nc(NC3CCCCC3)n2)cc1`, 16.5%.
The same measure for `O=C(NCCO)C(F)(F)C(F)(F)C(F)(F)OC(F)(C(=O)NCCO)C(F)(F)F` (stereo not drawn): 12.3%.
Under `Cc1cc(C)n(C(=O)CNC(=O)c2ccco2)n1` stands 10.2%; under `O=C1c2[nH]nc(-c3ccccc3O)c2C(c2cccc(O)c2)N1Cc1ccco1` (stereo not drawn), 1.45%; under `COc1cccc(-n2nnnc2SCC(=O)Nc2ccc3c(c2)OCCO3)c1`, 7.76%.
For `Cc1cc(Nc2cc(Cl)nc(Sc3ccc(NC(=O)C4CC4)cc3)n2)n[nH]1`, the “hERG current change (%, negative = inhibition) at 1uM” value is recorded as 6.75%.
With `Nc1nc2nc(-c3ccc(F)cc3)cc(C(F)(F)F)n2n1`, the “hERG current change (%, negative = inhibition) at 1uM” value stood at 4.47%.
The same measure for `CCCC1(c2ccccc2)NC(=O)N(CC(=O)N(C)Cc2c(F)cccc2Cl)C1=O` (stereo not drawn): 15%.
As for `O=C(O)Cc1ccc(C(=O)c2cccs2)s1`, the “hERG current change (%, negative = inhibition) at 1uM” value is given as 13.8%.
The same measure for `COc1ccc(S(=O)(=O)N(CC(=O)NC2CC2)c2ccc(C)cc2)cc1`: 6.87%; for `CN(CCO)c1cc(Sc2nc3ccccc3s2)c2nonc2c1[N+](=O)[O-]`: 14.6%.
Under `O=C1NC(=O)/C(=C\c2ccccc2OCc2ccccc2)S1` stands 27.2%; under `COc1ccc(OC)c(NC(=O)CSc2nnc(-c3ccco3)n2-c2ccccc2)c1`, 12%.
Under `CCn1ncc(N2CCOCC2)c(Cl)c1=O` stands 11.9%; under `C=CCOc1ccccc1CNc1ccccc1C`, 14.9%.
Consider `CC(C)OC(=O)CSc1nnc(-c2ccc(Cl)cc2)n1N`, for which the “hERG current change (%, negative = inhibition) at 1uM” value is listed as 8.72%.
Under `Cc1ccccc1NC(=O)Cc1nnc(SCC(=O)N2CCN(c3ccccc3)CC2)n1C` stands 5.87%; under `CCN(CC)C(=O)c1ccc(COc2ccc(Cl)c(C)c2)o1`, 9.22%.
For `Cc1ccc(S(=O)(=O)Nc2ccccc2C(=O)N2CCCC2)cc1`, the “hERG current change (%, negative = inhibition) at 1uM” value was found to be 13.2%.
The same measure for `CCOc1ccc(NC(=O)C(CC(=O)O)Cc2ccc(C)cc2)cc1` (stereo not drawn): 12.3%; for `COc1ccc(/C=C/c2nnc(NC(C)=O)s2)cc1`: 10%.
As for `CSCCC(NC(=O)c1ccccc1Cl)C(=O)N(C)Cc1cccs1` (stereo not drawn), the “hERG current change (%, negative = inhibition) at 1uM” value was 5.83%.
Under `CCOc1ccccc1NC(=O)Cn1nnc(C(=O)NCCc2ccc(OCC)c(OCC)c2)c1N` stands 5.66%; under `COc1cccc(CNC(=O)C2CCN(S(=O)(=O)c3ccc4c(c3)OCCO4)CC2)c1`, 8.44%; under `CCC(=O)Nc1nnc(S(=O)(=O)N(C)c2ccccc2)s1`, 14.7%.
Under `CCN(CC)c1ccc(N2C(=O)/C(=C/c3cccs3)SC2=S)cc1` stands 17.9%.
Turning to `O=C(N/N=C/c1cccnc1)c1ccc(O)cc1`, the “hERG current change (%, negative = inhibition) at 1uM” value is 14.4%.
The same measure for `CCCN(CC(=O)Nc1ccccc1OC)C(=O)CN1C(=O)NC2(CCCCC2)C1=O`: 2.92%; for `COc1ccc(C(=O)NN=C(Cc2ccccc2)Cc2ccccc2)cc1OC`: 12.3%.
Under `CCn1ncc(Br)c1C(=O)Nc1c(C)nn(Cc2c(F)c(F)c(F)c(F)c2F)c1C` stands 8.85%; under `O=C(c1cnc2n(c1=O)CCS2)N(C1CCCCC1)C1CCCCC1`, 5.05%; under `Cc1cc(NC(NC(=O)c2ccco2)(C(F)(F)F)C(F)(F)F)no1`, -1.76%.
The same measure for `Cc1cc(C)cc(C(=O)N2CC(=O)Nc3ccccc32)c1`: -0.28%.
Turning to `CCOc1ccccc1N1CC(C(=O)N2CCc3ccccc3C2)CC1=O` (stereo not drawn), the “hERG current change (%, negative = inhibition) at 1uM” value was found to be 4.47%.
Under `CSc1ncccc1C(=O)OCC(=O)NC1CCS(=O)(=O)C1` (stereo not drawn) stands 11.9%.
The same measure for `CCNC(=S)NNC(=O)c1cccs1`: 17%.
The same measure for `COc1ccc(CC(=O)Nc2ccc(N3CCCCC3)cc2)cc1`: 9.17%.
In the case of `CCc1ccc(NC(=S)N(CCN(C)C)C(C)c2ccncc2)cc1` (stereo not drawn), the “hERG current change (%, negative = inhibition) at 1uM” value was found to be 5.53%.
In the case of `CCOC(=O)C1(CC2CCCCO2)CCN(Cc2cn[nH]c2-c2cccc(F)c2)CC1` (stereo not drawn), the “hERG current change (%, negative = inhibition) at 1uM” value is listed as -27.2%.
The same measure for `Cc1ccc(OCC(=O)N2CCN(Cc3ccc4c(c3)OCO4)CC2)cc1C`: -7.31%; for `CN(c1ccccc1C(=O)Nc1cccc([N+](=O)[O-])c1)S(C)(=O)=O`: 6.13%.
`O=C(c1cccc([N+](=O)[O-])c1)N1CCCC(C(=O)N2CCCCC2)C1` (stereo not drawn): the “hERG current change (%, negative = inhibition) at 1uM” value was found to be 11%.
The same measure for `CCn1cc(C(=O)N2CCc3ccccc32)c(=O)c2cc(S(=O)(=O)N3CC(C)CC(C)C3)ccc21` (stereo not drawn): 3.81%; for `COc1ccc(OC)c2c1sc(=NC(=O)C1CC1)n2C`: 0.784%.
Under `CCC(=O)N1CCCc2ccccc21` stands 17.1%; under `COc1ccc(Cc2nnc(N=Nc3c(O)[nH]c4ccc(Br)cc34)[nH]c2=O)cc1`, 1.07%; under `CC(C)Oc1ccc(C2CC(=O)NC2=O)cc1` (stereo not drawn), 1.07%.
The same measure for `COc1ccc(-c2cc3ccc(OC)cc3cn2)cc1`: 9.93%; for `CCc1ccc(CN(C)CC(O)COc2cccc3ccccc23)cc1` (stereo not drawn): 11.4%; for `CCc1ccc(CNC(=O)C2CCCN(c3nnc(C)c4c(C)n(-c5ccccc5)nc34)C2)cc1` (stereo not drawn): 15.9%.
On to `CC1CN(C(=S)NC2CCCC2)CC(C)O1` (stereo not drawn), for which the “hERG current change (%, negative = inhibition) at 1uM” value was 8.34%.

For the origin of these results see paper PMC4336329 (PLoS ONE, 2015).
